According to PMC4336329 (PLoS ONE, 2015):
Hit rate of the full screen: of about 310,000 compounds, about 2,200 (0.71%) showed an effect of 50% or more. The effect is printed as a negative number. The list shows a part of the results.

Target: human ether-à-go-go-related gene (hERG) potassium channel (human, UniProt Q12809)
Test: primary screen, population patch clamp on CHO cells stably expressing hERG

human ether-à-go-go-related gene (hERG) potassium channel, sequence (Q12809 whole entry, looked up): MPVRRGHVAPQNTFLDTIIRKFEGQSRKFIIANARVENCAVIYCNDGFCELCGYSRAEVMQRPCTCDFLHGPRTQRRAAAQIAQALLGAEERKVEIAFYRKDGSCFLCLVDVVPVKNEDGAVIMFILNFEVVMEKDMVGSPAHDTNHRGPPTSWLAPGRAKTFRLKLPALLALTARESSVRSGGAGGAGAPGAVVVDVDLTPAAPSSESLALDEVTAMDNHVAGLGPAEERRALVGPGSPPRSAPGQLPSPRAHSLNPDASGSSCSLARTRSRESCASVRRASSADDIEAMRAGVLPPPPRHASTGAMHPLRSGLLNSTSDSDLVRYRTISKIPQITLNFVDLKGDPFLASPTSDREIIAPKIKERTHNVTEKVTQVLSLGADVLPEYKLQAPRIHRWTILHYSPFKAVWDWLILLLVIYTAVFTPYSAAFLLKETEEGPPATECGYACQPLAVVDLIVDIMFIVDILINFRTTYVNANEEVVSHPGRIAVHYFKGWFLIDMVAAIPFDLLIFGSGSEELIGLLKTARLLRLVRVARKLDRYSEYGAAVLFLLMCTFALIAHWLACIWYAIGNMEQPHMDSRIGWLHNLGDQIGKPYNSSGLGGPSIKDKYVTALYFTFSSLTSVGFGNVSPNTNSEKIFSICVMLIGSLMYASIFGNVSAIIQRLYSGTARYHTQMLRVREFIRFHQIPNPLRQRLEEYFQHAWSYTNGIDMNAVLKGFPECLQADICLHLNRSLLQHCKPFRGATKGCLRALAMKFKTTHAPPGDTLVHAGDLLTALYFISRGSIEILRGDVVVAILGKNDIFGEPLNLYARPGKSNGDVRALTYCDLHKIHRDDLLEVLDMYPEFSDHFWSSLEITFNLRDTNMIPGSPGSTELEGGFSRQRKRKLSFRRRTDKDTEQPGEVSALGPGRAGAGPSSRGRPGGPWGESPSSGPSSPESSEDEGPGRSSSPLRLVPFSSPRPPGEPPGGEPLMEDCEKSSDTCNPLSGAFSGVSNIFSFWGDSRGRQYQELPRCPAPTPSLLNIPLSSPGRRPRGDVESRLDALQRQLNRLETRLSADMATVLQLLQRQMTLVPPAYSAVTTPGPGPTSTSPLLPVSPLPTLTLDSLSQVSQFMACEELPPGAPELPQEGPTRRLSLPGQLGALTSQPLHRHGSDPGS

| Structure (SMILES) | hERG current change (%, negative = inhibition) at 1uM [%] |
| --- | --- |
| Cc1ccc(C(=O)Nc2nnc(Cc3ccccc3)s2)cc1 | 5.85 |
| C=C(C)C(=O)OCC(=O)NCc1ccccc1 | 8.64 |
| CCOc1cccc2sc(Nc3nc4ccc(NC(C)=O)cc4s3)nc12 | 3.37 |
| O=C(c1ccc(N2C(=O)C3CC=C(Cl)CC3C2=O)cc1)N1CCCCC1 (stereo not drawn) | 7.79 |
| COc1ccccc1CC(=O)Nc1cc(OC)c(NC(=O)c2ccccc2)cc1OC | 14.1 |
| CCCn1c(N)cc(=O)n(CCC)c1=O | 17.5 |
| Cc1ccc(S(=O)(=O)NCCOC(=O)Nc2sc(=S)n(C)c2C)cc1 | 14.1 |
| CN(/N=C/c1ccccc1Cl)c1ncc(Cl)cc1C(F)(F)F | 10.3 |
| CSc1n[nH]c(NCc2cccs2)n1 | 12.5 |
| O=S(=O)(c1ccc(Cl)cc1)c1snnc1-c1ccccc1 | 7.45 |
| COC(=O)CSc1nc(Cc2ccccc2)nc2ccccc12 | 11.6 |
| Nc1nnc(SCc2ccccc2Cl)s1 | 8.75 |
| CN(C)CCN(Cc1ccccc1)S(=O)(=O)c1ccc(-c2ccc(=O)[nH]n2)s1 | -23.8 |
| CCC(=O)NC(NC(=S)Nc1ccc(S(N)(=O)=O)cc1)C(Cl)(Cl)Cl (stereo not drawn) | -0.792 |
| C=CCOC(=O)C1=C[C@H](c2ccc(Br)cc2)C[C@H](OCc2ccc(CO)cc2)O1 | 18.4 |
| O=C(COc1ccc(Br)cc1)Nc1ccc(C(=O)Nc2ccccc2C(=O)O)cc1 | 3.84 |
| CC(=O)NS(=O)(=O)c1ccc(NC(=O)c2cccc3ccccc23)cc1 | 16.5 |
| O=C(c1ccc(NS(=O)(=O)c2ccccc2)cc1)N1CCOCC1 | 16.5 |
| S=C(Nc1ccc(N2CCOCC2)cc1)Nc1ccc2snnc2c1 | 3.86 |

| Structure (SMILES) | hERG current change (%, negative = inhibition) at 1uM [%] |
| --- | --- |
| COc1cccc(N(C(=O)Cn2nnc(-c3ccc(C)cc3)n2)C(C(=O)NC(C)(C)C)c2c[nH]c3ccccc23)c1 (stereo not drawn) | 5.18 |
| CC(=O)Nc1ccc(/C=C(\C#N)C(N)=O)cc1 | 12.4 |
| CCC(=O)NCCc1nc2cc(NC(=O)c3ccc(F)cc3)ccc2n1C | 11.7 |
| CCN(CC)CCN(C(=O)c1ccc2c(c1)CCCC2)c1nc2c(C)cccc2s1.Cl | 9.42 |
| CCN(CC)S(=O)(=O)c1ccc(/C=C/C(=O)O)cc1 | 4.16 |
| Cc1cccc(Cc2nnc(CCC(=O)N(C)CCc3ccccc3)o2)c1 | 7.36 |
| O=C(NCCc1ccccc1)c1ccc(-c2ccccc2Cl)o1 | 7.88 |
| CC(=O)Nc1ccc(-n2nnnc2SCC(=O)N2CCN(C(=O)c3ccco3)CC2)cc1 | 13.2 |
| O=C(Nc1ccc(Cl)cc1)N[C@@H]1c2c(ccc3ccccc23)OC[C@@H]1CO | 10.5 |
| COC(=O)c1cc(Cl)cc(Cl)c1OS(=O)(=O)N(C)C | 1.43 |
| CSc1ccc(Cl)c(C(=O)Nc2ccc(Cl)cn2)c1 | 6.57 |
| COC(=O)c1c(C)[nH]c(C)c1-c1ccccc1 | -2.09 |
| CCOC(=O)c1ccc(CC2SC(N)=NC2=O)cc1 (stereo not drawn) | 0.175 |
| O=C(CNC(=O)C(c1ccccc1)c1ccccc1)N/N=C/c1ccc(O)c([N+](=O)[O-])c1 | 9.77 |
| CCOC(=O)C1(Cc2ccccc2Cl)CCN(C(=O)CN2CCOC2=O)CC1 | 20.5 |
| CCCNS(=O)(=O)c1cc2c3c(c1)C(C)C(=O)N3CCC2 (stereo not drawn) | 22.6 |
| O=C(COC(=O)CC1CCCC1)Nc1cc2c(cc1Cl)C(=O)c1ccccc1C2=O | 3.26 |
| COc1ccccc1CCC(=O)OCC(=O)Nc1ccc(C(N)=O)cc1 | 8.88 |
| O=C(O)c1ccccc1C(=O)OCc1ccccc1 | 9.44 |

| Structure (SMILES) | hERG current change (%, negative = inhibition) at 1uM [%] |
| --- | --- |
| O=c1sc2ccccc2c(N2CCOCC2)c1[N+](=O)[O-] | 11.1 |
| Cc1ccc(C2=NN(CC(=O)NCCN(CC(C)C)CC(C)C)C(=O)CC2)cc1 | -3.88 |
| Cc1ccc(S(=O)(=O)n2ccc(-c3ccc(OCc4c(F)cccc4Cl)cc3)n2)cc1 | 10.6 |
| Cc1cc(C)c(-c2cc(C)nc3ncnn23)c(C)c1 | 10.7 |
| O=C(O)c1cccc2c1C(=O)c1ccccc1C2=O | 12.6 |
| COc1ccc(NC(=O)CN(C)C(=O)c2oc3ccccc3c2C)cc1 | 0.906 |
| N#CCc1cc2ccc3cccc4ccc(c1)c2c34 | 10.6 |
| CCc1ccc(NC(=O)CSc2nc(=O)n(CCCN3CCOCC3)c3c2CCC3)cc1 | -0.632 |
| Cc1ccc(S(=O)(=O)NCCNC(C)c2ccc(Br)cc2)cc1 (stereo not drawn) | 1.97 |
| O=C(CC1C(=O)NCCN1C1CCCC1)NCc1cccc(OC(F)(F)F)c1 (stereo not drawn) | -0.913 |
| O=S(=O)(c1ccc2oc3ccccc3c2c1)N1CCCC1 | 4.66 |
| N#Cc1sc2nc3c(cc2c1N)CCCC3 | 3.69 |
| COc1ccc(CN2CCOCC2)c(C)c1C | -5.43 |
| CCCc1cc(=O)oc2cc(C)cc(OCC(=O)N[C@@H](CSCc3ccccc3)C(=O)O)c12 | -0.628 |
| O=C(Cn1cnc2nc3n(c2c1=O)CCC3)NCc1ccccc1 | 4.67 |
| COc1ccc(NC(=O)c2cnc3n(c2=O)CCS3)cc1OC | 9.37 |
| Cc1ccccc1NS(=O)(=O)c1ccc(C(=O)NCC(c2ccco2)N2CCCCC2)cc1 (stereo not drawn) | 16.3 |
| O=C1N/C(=C\c2ccccc2)c2ccccc21 | 11.2 |
| C=CC[C@]12CC=CC(=O)[C@@]1(O)O[C@H](c1ccc(OC)c(OC)c1)[C@H]2C | 10.7 |
